This note sets out measurements from the supplement of paper PMC8512760.

The other results are listed elsewhere or left out. Single values are uncertain, as repeats are few or missing.
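Note: stably firefly luciferase-GFP labeled cells in 96-well plates, viability read as luciferase photon flux after d-luciferin addition, treated wells normalized to vehicle wells, single-dose high-throughput screen.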

The assay concerns HCC-1187. Briefly: cell viability relative to vehicle (% of vehicle); basal-like triple-negative breast cancer lines; higher = less cytotoxic. The note with it: 10 µM; 72 h.
The compound `CC1=NS(=O)(=O)c2cc(Cl)ccc2N1` [Diazoxide] yielded a cell viability of 92.
The compound `CCOC(=O)c1ccc(N)cc1` [Benzocaine] displayed a cell viability of 138.
`O=C(O)Cc1cc(I)c(Oc2ccc(O)c(I)c2)c(I)c1` [Tiratricol] had a cell viability of 95.7.
To `CC(=O)NC(CS)C(=O)O` (stereo unspecified) [Acetylcysteine] belongs 102; to `Cn1c(=O)cc(N2CCCC(N)C2)n(Cc2cc(F)ccc2C#N)c1=O` (stereo unspecified) [Trelagliptin], 101.
To `CC12CCC(O)CC1=CCC1C2CCC2(C)C(n3cnc4ccccc43)=CCC12` (stereo unspecified) belongs 96.4.
On to `CNC(=O)C(NC(=O)C(CC(C)C)C(O)C(=O)NO)C(C)(C)C` (stereo unspecified) [Marimastat], for which the cell viability turned out to be 52.1.
As for `CC(C(=O)O)c1cccc(Oc2ccccc2)c1` (stereo unspecified) [Fenoprofen calcium hydrate], the cell viability was 115.
On to `CS(=O)(=O)CCNCc1ccc(-c2ccc3ncnc(Nc4ccc(OCc5cccc(F)c5)c(Cl)c4)c3c2)o1.Cc1ccc(S(=O)(=O)O)cc1.Cc1ccc(S(=O)(=O)O)cc1` [Lapatinib Ditosylate], for which the cell viability came to 73.4.
`CCCN1CCCCC1C(=O)Nc1c(C)cccc1C.Cl` (stereo unspecified) [Ropivacaine HCl]: the cell viability is 81.4.
As to `C[N+](C)(C)CCO.[Cl-]` [Choline Chloride], the cell viability was 99.1.
To `C[N+](C)(C)CC(O)CC(=O)O.[Cl-]` (racemic) [DL-Carnitine HCl] belongs 86.6; to `C=C(c1ccc(C(=O)O)cc1)c1cc2c(cc1C)C(C)(C)CCC2(C)C` [Bexarotene], 108.
Under `Cl.Cl.NC(=NCCCCCCN=C(N)N=C(N)Nc1ccc(Cl)cc1)N=C(N)Nc1ccc(Cl)cc1` [Chlorhexidine HCl] stands 29.1; under `CCC1=CC2CN(C1)Cc1c([nH]c3ccccc13)C(C(=O)OC)(c1cc3c(cc1OC)N(C)C1C(O)(C(=O)OC)C(OC(C)=O)C4(CC)C=CCN5CCC31C54)C2.O=C(O)C(O)C(O)C(=O)O.O=C(O)C(O)C(O)C(=O)O` (stereo unspecified) [Vinorelbine ditartrate], 52.4; under `CC(=O)c1c(C)c2cnc(Nc3ccc(N4CCNCC4)cn3)nc2n(C2CCCC2)c1=O.Cl`, 93.6.
With `Cl.O=C1Cc2cc(CCN3CCN(c4nsc5ccccc45)CC3)c(Cl)cc2N1` [Ziprasidone HCl], the cell viability amounted to 142.
The compound `O=C(CCCCCCNC(=O)c1cnc(N(c2ccccc2)c2ccccc2)nc1)NO` [Rocilinostat (ACY-1215)] gave a cell viability of 76.1.
`Cc1ccccc1N1C(=O)c2cc(S(N)(=O)=O)c(Cl)cc2NC1C` (stereo unspecified) [Metolazone] showed a cell viability of 109.
Under `COC(=O)C1=C(C)NC(C)=C(C(=O)OCCN(C)Cc2ccccc2)C1c1cccc([N+](=O)[O-])c1.Cl` (stereo unspecified) [Nicardipine HCl] stands 109; under `CC1CC2C3CCC4=CC(=O)C=CC4(C)C3(Cl)C(O)CC2(C)C1(OC(=O)c1ccco1)C(=O)CCl` (stereo unspecified) [Mometasone furoate], 106.
To `CO[C@H]1O[C@@H]2O[C@@]3(C)CC[C@H]4[C@H](C)CC[C@@H]([C@H]1C)[C@@]24OO3` [Artemether (SM-224)] belongs 89.2; to `O=C([O-])CCCc1ccccc1.[Na+]` [Sodium Phenylbutyrate], 91.8; to `Cn1c(=O)cc(N2CCCC(N)C2)n(Cc2ccccc2C#N)c1=O` (stereo unspecified) [Alogliptin (SYR-322)], 102.
To `C[C@@H]1C[C@H]2[C@H]3CCC4=CC(=O)C=C[C@]4(C)[C@@]3(F)[C@@H](O)C[C@]2(C)[C@@]1(O)C(=O)CO` [Dexamethasone (DHAP)] belongs 112.
Consider `COc1cc2ncnc(Nc3ccc(F)c(Cl)c3)c2cc1OCCCN1CCOCC1` [Gefitinib (ZD1839)], for which the cell viability is 71.9.
Under `O=C(C=Cc1cccc(S(=O)(=O)Nc2ccccc2)c1)NO` [Belinostat (PXD101)] stands 26.9; under `Nc1ccc(C(=O)[O-])c(O)c1.O.O.[Na+]` [Sodium 4-Aminosalicylate], 87.7; under `CCN(CC)CCOC(=O)C(c1ccccc1)c1ccccc1.Cl` [Adiphenine HCl], 82.6.
To `COc1ccccc1Oc1c(NS(=O)(=O)c2ccc(C(C)(C)C)cc2)nc(-c2ncccn2)nc1OCCO.O` [Bosentan Hydrate] belongs 87.2; to `Nc1ccc(O)c(C(=O)O)c1` [Mesalamine], 114.
